The term GI50 denotes the concentration that inhibits growth by half.

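Test compounds were applied to cells in 96-well plates for 48 hours at 5 doses. GI50: concentration for 50% inhibition of growth.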 The source made the active and inactive calls. Cut-off read from the data, not from the text of the source: active = GI50 up to about 1.1 µM and inactive = higher.

The subject of the assay is NCI-H322M. Briefly: DTP human tumour cell line panel, 48 h.
Regarding `[N-]=[N+]=NCC(=O)c1cnc(O)nc1O`, the GI50 was inactive: > 100 µM.
With `Oc1cc(-c2ccc3c(c2)OCO3)nc2cc3c(cc12)OCO3` the figure was inactive: 34.8 µM; with `CC(C)(C)c1ccc(O)c(CN(Cc2cc(C(C)(C)C)ccc2O)c2ccccc2)c1`, inactive: 16.1 µM.
With `CC(C)(C)C1=NN=C2c3ccccc3C(=O)C21` (configuration not stated), the GI50 is inactive: > 100 µM.
With `O=C1c2ccccc2C(=O)c2c(Nc3ccc4c5c(cccc35)C(=O)c3ccccc3-4)cccc21`, the GI50 is inactive: > 100 µM.
For `Cc1ccc(S(=O)(=O)OCC(=O)O)cc1` the value was inactive: > 100 µM.
With `CN(C)CCn1c(=O)c2ccc(NCCCN(C)CCCNc3ccc4c(=O)n(CCN(C)C)c(=O)n5c6ccc([N+](=O)[O-])cc6c(=O)c3c45)c3c(=O)c4cc([N+](=O)[O-])ccc4n(c1=O)c23` the figure was active: < 0.01 µM; with `CCOC(=O)Cc1c(C)c2ccc(OC(C)=O)c(OC(C)=O)c2oc1=O`, inactive: 35.7 µM.
Take `O=C1/C(=C\c2ccc(Cl)cc2)N=C(c2ccccc2)N1n1c(=O)cn[nH]c1=S`: the GI50 is inactive: > 100 µM.
Regarding `COc1ccc(OC2OC(CO)C(O)C(O)C2O)cc1` (configuration not stated), the GI50 is inactive: > 100 µM.
In the case of `Ic1cc2c(cc1C1SCCCS1)OCO2`, the GI50 is inactive: > 100 µM.
With `CN1CCN(CCCCN2c3ccccc3Sc3cc(N=[N+]=[N-])ccc32)CC1` the figure was inactive: 2.31 µM; with `CCOC(=O)c1ccc(C(=O)/C(C#N)=C2\CCCN2)n1C`, inactive: > 100 µM.
For `CSc1c(C#N)c(O)n(-c2ccc(Cl)cc2)c(=O)c1C#N` the value was inactive: 46.3 µM.
On to `CC1(C)C2CCC13C(=O)C1OC3(C2)C2C(=O)N(c3ccccc3)C(=O)C12` (configuration not stated), for which the GI50 was inactive: > 100 µM.
With `CCOC(=O)Cn1c2ccc(Br)cc2c2nc3ccccc3nc21` the figure was inactive: > 100 µM; with `CCCCCCCCCCCCCP(=O)(NCC(N)=O)OCC` (configuration not stated), inactive: 19 µM; with `Cc1cc(-c2ccccc2)nc2oc(=O)n(C)c12`, inactive: > 100 µM.
With `C#C[C@]1(O)CC[C@H]2[C@@H]3CCC4=C/C(=N/CCOC(=O)c5cccc6cc7ccccc7nc56)CC[C@@H]4[C@H]3CC[C@@]21C` the figure was inactive: 26.2 µM; with `c1ccc2c(c1)SC1=C(SC(=C3SC4=C(S3)Sc3ccccc3S4)S1)S2`, inactive: > 100 µM.
For `Cc1cc(O)nc(NN2C(Cl)C(=O)C2c2cccc(O)c2)n1` (configuration not stated) the value was inactive: 24.4 µM.
As for `CNS(=O)(=O)NNS(=O)(=O)c1ccc(Br)cc1`, the GI50 was inactive: > 100 µM.
For `COc1cc(C)cc2c(-c3c(O)cc(O)c4c3C[C@H](C)N[C@H]4C)cc(-c3cc(-c4c(O)cc(O)c5c4C[C@H](C)N[C@H]5C)c4cc(C)cc(OC)c4c3O)c(O)c12` the value was inactive: 37.4 µM; for `O=C1CSCc2sccc21`, inactive: > 100 µM; for `COc1ccccc1-c1nc(-c2ccccc2O)n[nH]1`, inactive: > 100 µM.
As for `CC(C)(C)c1ccc(C(C)(C)C)c(N2C(=O)[C@@H]3[C@@H]4C=C[C@@H](C4)[C@]3(C)C2=O)c1`, the GI50 was inactive: 76.2 µM.
With `COc1ccccc1NC(=S)N/N=C(/C)c1ccccn1` the figure was inactive: 2.01 µM.
Turning to `CC(C)=CC(=O)c1[nH]c2ccccc2c1CC(=O)NCCc1c[nH]cn1`, the GI50 is inactive: > 100 µM.
With `Cc1ccc(C(C)C)c(OCC(=O)N/N=C/c2c[nH]c3ccc(Br)cc23)c1` the figure was inactive: 2.07 µM.
With `NCC(NC(=O)OCc1ccccc1)C(=O)O` (configuration not stated) the figure was inactive: > 50 µM; with `Cc1c2c(c(C)c3c[n+](C)ccc13)Oc1ccccc1O2`, inactive: 14.4 µM; with `CC[N+]1(C)CCC(O)(/C=C/c2ccc(Cl)c(Cl)c2)C(C(=O)/C=C/c2ccc(Cl)c(Cl)c2)C1` (configuration not stated), inactive: 7.69 µM.
For `O=C1NC(N2CCCCC2)=N/C1=C\c1ccccc1O`, the GI50 was inactive: > 100 µM.
On to `CSc1c(C#N)c(O)n(-c2ccc(C)cc2)c(=O)c1C(C)=O`, for which the GI50 is inactive: > 100 µM.
For the molecule `CC(C)CCNC(=O)c1ccc(CNC(=O)/C=C/c2ccc3ccccc3c2)cc1`, the GI50 is inactive: > 100 µM.
With `COc1ccc(N2C(=O)C(N3C(=O)C=CC3=O)C2C=O)cc1` (configuration not stated), the GI50 is inactive: > 100 µM.
With `CC(=O)OCC1OC(n2c(C)c(C(C)=O)c(-c3ccc(Cl)cc3)c(C#N)c2=S)C(OC(C)=O)C(OC(C)=O)C1OC(C)=O` (configuration not stated), the GI50 is inactive: > 100 µM.
With `CCOC(=O)N1CCN(C=S)CC1` the figure was inactive: > 100 µM; with `Nc1ncnc2c1ncc(=O)n2C1CC(O)C(CO)O1` (configuration not stated), inactive: > 100 µM.
For `CCC1c2cc3n(c(=O)c2COC1O)Cc1c-3nc2ccccc2c1Cl` (configuration not stated) the value was inactive: 57.1 µM; for `CCCCOCOc1ccccc1P1(=O)COc2ccccc2OC1`, inactive: > 100 µM; for `COC(=O)C(Cc1ccccc1)NC(=O)c1ccc(CNC(=S)NCc2cccc(CNC(=S)NCc3ccccc3)c2)cc1` (configuration not stated), inactive: > 35.5 µM.
With `CN1C2CCC1CC(C)(O)C2` (configuration not stated) the figure was inactive: > 100 µM; with `COC(=O)/C=C1/CCC(C)(C(=O)NS(=O)(=O)c2ccc(C)cc2)C1(C)C` (configuration not stated), inactive: > 100 µM; with `O=[N+]([O-])c1cc(CCl)ccc1CCl`, inactive: 1.68 µM.
With `CN(C)C(=S)SCC(=O)Nc1ccccc1`, the GI50 is inactive: > 100 µM.
Turning to `O=C1C(=O)N(C2C3CC4CC(C3)CC2C4)C(=O)C(=O)C1c1nc2ccccc2o1` (configuration not stated), the GI50 was inactive: > 100 µM.
With `O=c1c2cc(Br)ccc2n(C2OC(CO)C(O)C(O)C2O)c(=S)n1-c1ccccc1` (configuration not stated) the figure was inactive: > 100 µM; with `N/N=C(\Cc1ccccc1)NN=C(N)N`, inactive: > 100 µM; with `CCOC(=O)NC(Nc1ccc(F)cc1F)(C(F)(F)F)C(F)(F)F`, inactive: > 100 µM.
As for `CC(=O)C1(O)CCC2(O)C3(O)CC=C4CC(O)CCC4(C)C3CC(OC(=O)c3ccc(O)cc3)C12C` (configuration not stated), the GI50 is inactive: > 100 µM.
For `COC(=O)C1=C(OC(=O)/C(=C/c2ccccc2)c2ccccc2)C(C(=O)OC)[C@@]2(O)[C@@H](C(=O)OC)[C@H](C)C[C@@H]1[C@@H]2C(=O)OC` (some centres not stated), the GI50 is inactive: > 100 µM.
For `Nc1nc(Nc2ccccc2)sc1C(=O)c1c[nH]c2ccccc12` the value was inactive: 10.6 µM; for `O=C1OC(CC(=O)c2ccc(Cl)c(Cl)c2)C(Cl)=C1Cl` (configuration not stated), inactive: > 100 µM; for `O=c1c2cc(I)ccc2nc(SCc2nnco2)n1Cc1ccccc1`, inactive: 88.3 µM.
Regarding `Cc1ccc(-n2c(C)nc3c2C(=O)c2ccccc2C3=O)cc1`, the GI50 was inactive: 27.5 µM.
With `Cc1nc(NC(=S)NC(=O)c2ccc(Cl)c(Cl)c2)sc1C(=O)/C=C/c1ccccc1[N+](=O)[O-]` the figure was inactive: 31.6 µM; with `CS(=O)(=O)OC1CCN(C2(c3cccc(O)c3)CCCCC2)CC1`, inactive: > 100 µM; with `N#CCCN(CCC#N)c1ccc(/C=C2\N=C(c3ccccc3)N(NC(=O)c3ccncc3)C2=O)cc1`, inactive: > 100 µM.
`O=C1CC2C(=O)N(Cc3ccccc3)C1C=C2S(=O)(=O)c1ccccc1` (configuration not stated): the GI50 was inactive: > 100 µM.
As to `CC(C)=C1C(=O)c2c(Cl)sc(Cl)c2C1=O`, the GI50 is inactive: 36.2 µM.
For `CC(Oc1ccccc1)C(=O)NNC(=O)OC(C)(C)C` (configuration not stated) the value was inactive: > 100 µM; for `N#CC12C(=O)N3C(=NC(c4ccccc4)NC3c3ccccc3)C1(C#N)C(c1ccccc1)NC1=C2CCCC1` (configuration not stated), inactive: > 100 µM.
Turning to `O=C1C2=C(c3ccccc31)C(c1ccccc1Cl)N1C(=O)CCSC1=N2` (configuration not stated), the GI50 was inactive: > 100 µM.
With `O=C1C=CC(O)(C#CCO)C=C1` the figure was inactive: 20.2 µM.
For `CC1C(=O)OC2CC[N+]3([O-])CC=C(COC(=O)C(C)(O)C1(C)O)C23` (configuration not stated) the value was inactive: > 100 µM; for `O=c1c2ccccc2nc(-c2cccc(Cl)c2)n1NC1OC(CO)C(O)C(O)C1O` (configuration not stated), inactive: > 100 µM.
For `COC(=O)C1CCc2c1c(=O)n1c([nH]c3ccccc31)c2C#N` (configuration not stated), the GI50 was inactive: > 100 µM.
For `Oc1ccc(O)c(CNc2ccc(C(O)C(F)(F)F)cc2)c1` (configuration not stated) the value was inactive: 27.9 µM; for `O=C(c1nc2ccc([N+](=O)[O-])cc2nc1O)C(O)c1ccc2c(c1)OCO2` (configuration not stated), inactive: > 100 µM.
With `C/C(=N/NC(=O)c1ccccc1Nc1ccccc1C(=O)N/N=C(\C)c1ccc(C)cc1)c1ccc(C)cc1` the figure was inactive: > 100 µM; with `COc1ccccc1NC(=O)C1=C(C)NC(C)=C(C(=O)Nc2ccccc2OC)C1c1cccc2ccccc12`, inactive: > 100 µM; with `CCC(O)C1Cc2c(C)cc3c(c2O1)C(=O)c1ccccc1C3=O` (configuration not stated), inactive: 42.2 µM.
For `O=C(Cc1ccccc1)N/N=C(/CCN1CCCC1)CC(c1ccccc1)c1c(O)c2ccccc2oc1=O` (configuration not stated), the GI50 is inactive: > 100 µM.
With `CC(C)=CCC/C(C)=C/CCC1(C)C2COC(=O)C21` (configuration not stated) the figure was inactive: > 100 µM.
With `CCN(CC)C(=S)SC(C(=O)Nc1nnc(-c2ccccc2)o1)c1ccccc1` (configuration not stated) the figure was inactive: 15.6 µM; with `C[N+](C)(C)C(C1=CCCC1=O)c1ccccc1` (configuration not stated), inactive: > 100 µM.
For `C=C1C(=O)O[C@@H]2[C@H]1C[C@@H](O)[C@H](C)[C@@](O)(C(=O)/C=C/C)[C@H]2OC(=O)C(C)CC` (some centres not stated) the value was inactive: 32 µM.
Take `C=C1C(=O)[C@@]23CC[C@H]4[C@@](C)(CCC[C@@]4(C)C(=O)OC)[C@@H]2CC[C@]1(O)C3`: the GI50 is inactive: 1.74 µM.
For the molecule `CC1CC2OC(=O)C3CC(O)CC(=C23)[C@@]12C[C@@H](c1ccoc1)OC2=O` (some centres not stated), the GI50 is inactive: > 100 µM.
For `c1ccc(C2[C@@H]3CCCc4ccccc4C3=NN2c2ccccc2)cc1` (some centres not stated) the value was inactive: > 100 µM.
For the molecule `COC1(O)C(=O)c2ccccc2OC1(OC)c1ccccc1` (configuration not stated), the GI50 is inactive: > 100 µM.

The record behind these values is ChEMBL document CHEMBL1201862, “PubChem BioAssay data set” (2004).
